Test results taken from the supplement of paper PMC3334620.
The full ranking holds about 33,000 sequences; the median of “E-score (-0.5 to 0.5)” is about -0.012, and the highest 2% start at about 0.29. The list shows a part of the results.

What follows are sequences tested against T1, Ybr033w (UniProt P38073) (assay: PBM E-score (8-mer binding enrichment) (E-score (-0.5 to 0.5)); higher = stronger / more preferred TF binding; most listed sequences are background and not binding sites). Conditions: protein concentration: 200 nM; construct: GST-full length.
T1 sequence: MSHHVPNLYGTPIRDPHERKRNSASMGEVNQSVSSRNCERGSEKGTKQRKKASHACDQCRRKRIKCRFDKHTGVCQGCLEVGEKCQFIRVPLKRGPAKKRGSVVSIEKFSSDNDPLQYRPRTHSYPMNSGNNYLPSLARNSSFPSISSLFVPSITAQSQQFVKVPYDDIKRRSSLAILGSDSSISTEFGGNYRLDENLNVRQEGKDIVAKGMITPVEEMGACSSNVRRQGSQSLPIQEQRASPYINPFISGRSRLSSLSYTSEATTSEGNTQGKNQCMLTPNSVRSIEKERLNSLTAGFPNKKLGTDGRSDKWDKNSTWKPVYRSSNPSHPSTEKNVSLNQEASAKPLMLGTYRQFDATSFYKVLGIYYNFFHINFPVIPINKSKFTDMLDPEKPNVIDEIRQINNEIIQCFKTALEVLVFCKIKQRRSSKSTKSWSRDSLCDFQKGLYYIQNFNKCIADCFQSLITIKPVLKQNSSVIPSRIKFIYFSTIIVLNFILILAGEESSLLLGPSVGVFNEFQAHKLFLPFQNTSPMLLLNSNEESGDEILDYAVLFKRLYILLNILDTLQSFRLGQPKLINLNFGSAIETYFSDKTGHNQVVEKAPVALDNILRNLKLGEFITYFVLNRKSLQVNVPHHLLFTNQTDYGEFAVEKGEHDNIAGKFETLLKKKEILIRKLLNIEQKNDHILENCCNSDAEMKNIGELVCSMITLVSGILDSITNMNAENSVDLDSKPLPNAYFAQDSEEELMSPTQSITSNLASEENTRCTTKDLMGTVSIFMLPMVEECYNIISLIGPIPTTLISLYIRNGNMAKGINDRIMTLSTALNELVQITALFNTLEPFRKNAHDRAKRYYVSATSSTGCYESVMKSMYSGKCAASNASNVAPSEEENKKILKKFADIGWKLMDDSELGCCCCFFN
Experimental: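 Universal 'all 10-mer' protein binding microarrays (Agilent AMADID 015681) probed with GST-tagged S. cerevisiae TFs (full-length or DBD) made by in vitro transcription/translation (PURExpress), about 100-200 nM. Bound TF was detected with fluorescent anti-GST. Each ungapped 8-mer (which stands for itself and its reverse complement) is scored by the PBM enrichment score (E-score), a modified Wilcoxon-Mann-Whitney statistic from -0.5 to +0.5, computed with the Universal PBM Analysis Suite. Scale: above 0.35 generally sequence-specific binding.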

Sequence | PBM E-score
TTCGAGAA | 0.0644
ACCCACGC | -0.192
CACCTTGA | -0.135
GCTAGTAA | -0.014
ACTCCAGG | -0.069
GAGTTCGC | -0.128
AGTGTATA | -0.133
CAATCTAA | 0.163
AGGTTCAC | 0.00758
AGCGAGCT | 0.0856
CGCGTGAG | 0.0421
AAACTACT | 0.21
GACCGGTA | -0.384
CGTTGATC | 0.00866
GAGGAGCC | -0.175
CCTAGCCC | -0.227
AAAGATGT | 0.197
CACAGGCA | -0.184
AACGGAGA | -0.0619
ATATCGCG | 0.135
GGCAGTCA | -0.0478
CAAGGCTG | -0.159
CATTCACC | 0.136
CGTGCGTC | -0.109
CAGGAAAG | -0.182

Sequence | PBM E-score
CCTAAAAG | -0.226
GGTAACTA | 0.094
CGGCCGGC | -0.254
AACGTACA | 0.181
ACTGTGGC | -0.246
ACGCGTGA | 0.0314
AGCTGTCA | 0.0747
AACGGCTC | -0.0166
CTCCACTC | -0.194
CGCCTTAG | -0.231
CACAGGGA | -0.127
CGTTCGGA | 0.222
CAGAAACC | 0.00756
AACGCCCA | 0.0152
AGGTAAAC | 0.139
AGCTCTAT | -0.116
CATATCCG | 0.12
GAATCCAC | -0.0914
CGTGCAAG | -0.141
CAACGTGC | -0.0126
AGCACCAT | -0.202
CTCCGTCC | -0.194
ATATAGCG | 0.0143
CTTAATTC | 0.257
GGATCACC | -0.213

Sequence | PBM E-score
GACAGCGA | -0.0967
GGAATCCC | -0.0201
ACCTATTG | 0.0958
GTACGACA | -0.00798
ATCACCCA | 0.0281
GGTTATTA | 0.149
AGCACCCG | -0.123
GCGGCTCC | -0.245
CGCTTAGC | -0.137
ACGAATAT | 0.295
CCGTGGCA | -0.242
CAGTCTGC | -0.187
GGGGCTTA | -0.357
AGGGACAC | 0.0135
ACTTCACG | -0.102
ACTTTAGA | 0.112
AGCGACGC | -0.134
AAACACCG | 0.0265
ACGATAGC | 0.0994
ACGCATTC | -0.108
CACAGATA | -0.00259
AATTCCGC | 0.172
AAAAGCAT | 0.104
GTGCGGAA | 0.111
GATTCAAC | 0.083

Sequence | PBM E-score
ATGACCAC | -0.115
GGACCATA | -0.185
ACTTGAAA | 0.165
CCCATTCA | 0.0145
ACCGATGA | -0.193
ATACAACC | 0.0072
CGTTTGGC | 0.108
CACGTAGA | -0.159
ATGGCCGC | -0.311
AGGTTGTG | -0.245
CGACTAAC | 0.171
GAACCCCA | -0.133
CCTACCAG | -0.194
GCATACTA | 0.0596
CCTAGCTA | -0.166
CACATTTA | 0.0662
CAGAAAGA | 0.155
CCGGGTCA | -0.0622
TGAAATCA | 0.202
GAGTTTGA | 0.122
ACCGTTAA | 0.0767
CATATACG | 0.137
ACCTGGCC | -0.103
ACGGAAAC | -0.12
CCTGGGCG | -0.319

Sequence | PBM E-score
GGAGCTCC | -0.201
AACAAGGA | 0.12
CGAGTGCC | -0.198
ATTTATCG | 0.0834
ACATCTTC | 0.0736
AAGAGGCT | -0.184
GGTCGGCA | -0.192
TCCCTAGA | 0.117
GATCGCGC | -0.118
CGTTCATA | -0.0368
CAACCTGA | 0.0396
CATGCCGC | -0.0518
CACGATAA | 0.187
ATAGAACG | 0.202
TACGCAAA | 0.0661
ATCATCGA | 0.135
AGTCGAGA | 0.076
TAGTGGCA | 0.0891
AAAGGCAG | 0.0198
TCAACGGA | -0.00829
CAACGATC | 0.0482
AGGGACCG | -0.266
AGATATCG | 0.0533
AGTAGTAA | 0.178
CGACGGGA | -0.0153

Sequence | PBM E-score
CTCTTGAA | 0.101
CACTGTGA | 0.143
AATTAGAC | 0.173
ATCCGGCA | -0.129
ATTGGTCA | -0.00586
AGGAGCGA | -0.166
ATGACTAG | 0.106
GCCCTCTA | -0.176
AGCATAAT | 0.178
ACGCTCAG | -0.016
GCAGGGCA | -0.163
CAGTTACA | 0.0732
AAAACATG | 0.238
AGCTGATC | 0.0685
GCGATTCA | -0.142
CTCTCGAC | -0.0923
CGGTACAG | -0.13
CCGATCTC | -0.0712
AGTGAATC | 0.0239
CGGTTAAG | 0.0198
AAGGACCT | 0.0112
GAATCCCC | -0.237
CACATCCG | -0.00535
GCAAGAGC | -0.0553
CGATGACG | -0.11

Sequence | PBM E-score
ACTCAGTC | -0.0567
GCCAGTCA | -0.0701
ACATAACC | 0.0469
ATTTGGTC | -0.0569
ACGCATCC | -0.228
CAGCGTGG | -0.155
CCTTTTGA | 0.241
GCTGTTAC | -0.0989
CACTACCA | -0.00448
AAGTGTGC | 0.0437
AACCAACT | 0.212
GTAGAGAC | -0.105
CATGGAGG | -0.234
GCCTGGTA | -0.0806
ACCACACG | -0.0206
CTAGCGCC | -0.281
GGTCTAAC | -0.126
AGTTTCTA | 0.0314
GCCGAGAA | -0.00791
CTTTCAGC | -0.0731
AACCCCTT | -0.158
CGGCTATA | -0.0713
